# According to the supplement of paper PMC11417369:
# The list shows a part of the results.
# System: PF3D7_0420300 AP2 domain 1 (GST-tagged)
# Assay: gcPBM binding intensity (ln(normalized median fluorescence intensity)); higher = stronger DNA binding
# Method in brief: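 Using an Agilent 4 × 180k array, primer-extended double-stranded 36-bp intergenic genomic probes and negative controls were exposed for 1 h to GST-fused P. falciparum DNA-binding domains expressed in E. coli. Binding was carried out in 1× PBS with 1% milk, 0.2 mg/ml BSA, 0.5% salmon testes DNA and 0.03% Triton X-100, and protein was detected with Alexa488 anti-GST antibody and a 488 nm scan. Binding intensity is the highest Masliner-normalised natural-log median intensity across replicate spots of either probe orientation.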
row,Sequence,gcPBM binding intensity (ln)
1,AACATTATAAGACACACACACACATATATAAATATA [CACACA_site6622],10.3
2,ATATATCCAAATAGATTACATATATATATATAGATA [TGCATGCA_negctrl_site277],9.22
3,AAATATAATAAAATGACACACGCATATATATATATA [CACACA_site8900],9.38
4,TATTGCCCTTGACACACACACATATAAATAAATATA [CACACA_site7220],9.84
5,TAAGGTTAAATAATATGTACATATTATTATATATAT [XGTACX_site6953],9.16
6,TTATGGGACTCAAATACATGCAAAAATATTTTTAAG [TGCATGCA_site559],9.05
7,AAATATGTATATATATATATATATATATATATATAT [GTGCAC_negctrl_site335],8.99
8,TTAAACCGTGGGAGCACACACACACCCAGACACATA [CACACA_site4337],9.86
9,AATAAAGCAATAAATACACACATATATATATATATA [CACACA_site2934],9.31
10,TATATAAAAAATAGGTGGTCAACTTAAATATTTTAT [XGTACX_site4495],9.31
11,AGTTATGCATCTTAGGTGCTATGCCCAATTTATTTT [GTGCAC_site9977],9.31
12,AAAAAAAAAAAAAATGCACACATATATTTCCATATA [CACACA_site8416],9.33
13,TTGCCTTAAAAAGGAACACACATGCTTTTTTTAGTT [CACACA_site938],9.37
14,AACTTACTCTTTACAAGTACGTAAAAGAAATAGAAA [XGTACX_site1782],8.95
15,GTAGTAATAAATCTAGTGCATTATATATAACAAAAA [GTGCAC_site9803],9.33
16,TTTTTTTCTTTTTTTTGTACTCATACATACTATCAT [XGTACX_site607],9.25
17,AAAATATATCAAAATAGTACATAATTTTTTAAGAAT [XGTACX_site3515],9.17
18,AAAAATGTGCACACGCGTACACACAAAAAAAGAAAA [XGTACX_site4097],9.76
19,TGTACGAGTCGTAGAGTGCAGTCTGGAGAAACGTAC [GTGCAC_site9682],9.24
20,TATATACGTAATAGTAGTACTTTAAAATGCGGAAAT [XGTACX_site4597],9.44
21,ATAAATAACTTTTAAATACACACGTAAAATATATTG [CACACA_site3302],9.43
22,ATTTATATTATGAGGAGTACAATACTTATAGATGTA [XGTACX_site7510],9.18
23,GATAGACACGTGCACACATGCAATACTTTATTCAGT [TGCATGCA_site778],9.56
24,AAAAAAGATATATAAACACACATATTTATATACACA [CACACA_site6866],9.53
